Literature values as cited in patent US20140221490A1, “METHODS OF TREATING PAIN” (Hospira, Inc., priority 2011, published 2014).

Details: cited from earlier work; for K1:1, stability constant of 1:1 inclusion complex with HPβCD: literature reference; for Prot. bind., drug fraction bound to protein (fP): plasma; for Cmax: read-out: Cmax, maximum drug concentration in plasma, based on the drug's pharmacokinetics and administration of a normal drug dose

SMILES	K1:1, stability constant of 1:1 inclusion complex with HPβCD	Prot. bind., drug fraction bound to protein (fP)	Cmax
CC(C)(C(=O)O)c1ccc(C(O)CCCN2CCC(C(O)(c3ccccc3)c3ccccc3)CC2)cc1 (centres unmarked) [Allegra-D (fexofenadine), fexofenadine]	410^3 M^−1	70%	1.1 µM
Cc1cc(NS(=O)(=O)c2ccc(N)cc2)no1 [Bactrim (sulfamethoxazole), sulfamethoxazole]		70%	230 µM
CN(C)CCOC(c1ccccc1)c1ccccc1 [Diphenhydramine]	1,600^19 M^−1	80%	0.62 µM
NS(=O)(=O)c1cc(C(=O)O)c(NCc2ccco2)cc1Cl [Furosemide]	2,100^27 M^−1	99%	8.6 µM
Cc1cnc(C(=O)NCCc2ccc(S(=O)(=O)NC(=O)NC3CCCCC3)cc2)cn1 [Glipizide]	360^29 M^−1	99%	1.4 µM
CCN(CC)CC(=O)Nc1c(C)cccc1C [Lidocaine]			5.6 µM
COc1ccc2cc([C@H](C)C(=O)O)ccc2c1 [Naproxen]	2,000^36 M^−1		340 µM
